{"source": "paper PMC13083723", "about": "(Patterns, 2026)", "note": "The campaign covered roughly 5,400 compounds. About 190 (3.5%) showed an effect of 50% or more. Some of the results follow. Residues, ends and D or L forms follow the SMILES beside them. *: point of attachment. PhAc = O=C(Cc1ccccc1)*"}
{"test_system": "Vero-E6", "assay": "primary screen, phospholipidosis by LipidTOX staining; higher = more effect of the substance", "settings": "10 µM", "method_in_brief": "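Single-concentration screen at 10 μM, with DMSO 0.1 v/v % and amiodarone 10 μM as controls. Read-out is LipidTOX Red phospholipid staining, which tolerates aldehyde fixation, in Vero-E6 cells.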", "units": {"result_ITMP": "%"}}
{"smiles": "CCOC(=O)c1ccc(C#Cc2ccc3c(c2)C(C)(C)CCS3)nc1", "result_ITMP": -1.97}
{"smiles": "C[C@@H]1CN(c2c(F)c(F)c3c(=O)c(C(=O)O)cn(C4CC4)c3c2F)C[C@H](C)N1", "result_ITMP": -7.82}
{"smiles": "C=C1CC[C@H](O)C/C1=C/C=C1\\CCC[C@]2(C)[C@@H]([C@H](C)CCCC(C)(C)O)CC[C@@H]12", "result_ITMP": -0.38}
{"smiles": "CC(C)Cc1ccc(C(C)C(=O)O)cc1", "note": "(stereo not drawn) [R4A_0001344_001 / SPE_K14965640]", "result_ITMP": 1.58}
{"smiles": "O=C1CN=C(c2cccc(Br)c2)c2oc3ccccc3c2N1", "result_ITMP": 0.69}
{"smiles": "CC[C@]12CCCN3CCc4c(n(c5ccccc45)[C@@](O)(C(=O)OC)C1)[C@@H]32", "result_ITMP": 0.7}
{"smiles": "O=C(N[C@H]1CN2CCC1CC2)c1ccc2c(c1)OCCO2", "result_ITMP": 4.79}
{"smiles": "Cn1c(=O)c(F)c(Nc2ccc(I)cc2F)c2c(=O)n(C[C@@H](O)CO)cnc21", "result_ITMP": 3.44}
{"smiles": "CCC[C@@H](NC(=O)N1C(=O)C(CC)(CC)[C@@H]1Oc1ccc(C(=O)N2CCN(C)CC2)cc1)c1ccc2c(c1)OCO2", "result_ITMP": 29.8}
{"smiles": "NCCNc1ccc(NCCN)c2c1C(=O)c1ccncc1C2=O", "result_ITMP": -1.58}
{"smiles": "CNC[C@@H]1CC[C@@H](N)[C@@H](O[C@H]2[C@H](O)[C@@H](O[C@H]3OC[C@](C)(O)[C@H](NC)[C@H]3O)[C@H](N)C[C@@H]2N)O1", "result_ITMP": 2.29}
{"smiles": "O=c1[nH]c(=O)n([C@H]2C[C@H](O)[C@@H](CO)O2)cc1/C=C/Br", "result_ITMP": -9.45}
{"smiles": "Cc1ccc2c(c1)Cc1c(C(=O)NN3CCCCC3)nn(-c3ccc(Cl)cc3Cl)c1-2", "result_ITMP": 7.07}
{"smiles": "COc1ccc(-c2cc3c(C)nc(N)nc3n([C@H]3CC[C@H](OCCO)CC3)c2=O)cn1", "result_ITMP": 14.3}
{"smiles": "NCC(=O)N1C[C@H](NC(=O)c2ccccc2)C[C@H]1C(=O)O", "result_ITMP": 0.51}
{"smiles": "O=C(CCN1CCN(C(=O)OCc2cc(Cl)cc(Cl)c2)CC1)c1ccc2[nH]c(=O)oc2c1", "result_ITMP": 4.78}
{"smiles": "CN1CCc2cc3c(cc2[C@H]1[C@@H]1OC(=O)c2c1ccc1c2OCO1)OCO3", "result_ITMP": -1.82}
{"smiles": "O=S(=O)(NCCCCCCc1ccccc1)c1cccc2c(Cl)cccc12", "result_ITMP": -7.16}
{"smiles": "O=C(Nc1ccc(-c2ccncc2)cc1)N[C@H](CO)c1ccccc1", "result_ITMP": 7.28}
{"smiles": "O=C1C(Cl)=C(NCCN2CCOCC2)C(=O)c2ncccc21", "result_ITMP": 8.37}
{"smiles": "COc1ccc(-c2oc3c(CC=C(C)C)c(O)cc(O)c3c(=O)c2O)cc1", "result_ITMP": 0.17}
{"smiles": "Cc1nc2ccccc2c(-c2ccc3c4c(ccnc24)CCO3)c1[C@H](OC(C)(C)C)C(=O)O", "result_ITMP": -3.54}
{"smiles": "Clc1ccc(-c2nc3sccn3c2/C=N/OCc2ccc(Cl)c(Cl)c2)cc1", "result_ITMP": -2.29}
{"smiles": "CCN1CCC[C@H]1CNC(=O)c1cc(S(N)(=O)=O)ccc1OC", "result_ITMP": -2.06}
{"smiles": "Nc1ccc(S(N)(=O)=O)cc1", "result_ITMP": -4.23}
{"smiles": "COc1cc2ncnc(Nc3ccc(Oc4ccccc4)cc3)c2cc1OC", "result_ITMP": -0.42}
{"smiles": "CCCCCCCCCCCC(=O)O", "result_ITMP": 2.9}
{"smiles": "CC1CCN(CCCC(=O)c2ccc(F)cc2)CC1", "result_ITMP": -2.94}
{"smiles": "CC1=C(C(=O)OCCN(Cc2ccccc2)c2ccccc2)C(c2cccc([N+](=O)[O-])c2)C(P2(=O)OCC(C)(C)CO2)=C(C)N1", "note": "(stereo not drawn)", "result_ITMP": -1.99}
{"smiles": "C1CCC2(CC1)CCNCC2", "result_ITMP": 3.06}
{"smiles": "N.N.[Cl][Pt][Cl]", "result_ITMP": 4.77}
{"smiles": "[N-]=[N+]=N[C@]1(CO)O[C@@H](n2ccc(N)nc2=O)[C@@H](O)[C@@H]1O", "result_ITMP": -1.12}
{"smiles": "CS(=O)(=O)c1ccc(Oc2cc(F)cc(C#N)c2)c2c1[C@H](O)C(F)(F)C2", "result_ITMP": -2.29}
{"smiles": "CCOC(=O)CSCCC1NC(C(=O)O)CS1", "note": "(stereo not drawn)", "result_ITMP": -3.45}
{"smiles": "CC(C)CCC[C@@H](C)[C@H]1CC[C@H]2[C@@H]3CCC4=CC(=NO)CC[C@]4(C)[C@H]3CC[C@]12C", "result_ITMP": -0.61}
{"smiles": "CCCNS(=O)(=O)Nc1ncnc(OCCOc2ncc(Br)cn2)c1-c1ccc(Br)cc1", "result_ITMP": -14.1}
{"smiles": "CC(CCc1ccc(O)cc1)NCCc1ccc(O)c(O)c1", "note": "(stereo not drawn)", "result_ITMP": -2.76}
{"smiles": "N[C@@H](CCC(=O)N[C@@H](CSN=O)C(=O)NCC(=O)O)C(=O)O", "result_ITMP": 3.47}
{"smiles": "CC(=O)c1ccc(NS(C)(=O)=O)c(Oc2ccc(F)cc2F)c1", "result_ITMP": -1.81}
{"smiles": "CC(O)(C(=O)Nc1ccc(S(=O)(=O)c2ccccc2)cc1)C(F)(F)F", "note": "(stereo not drawn)", "result_ITMP": -0.72}
{"smiles": "CCOCc1cc(OC)c(-c2ccc(C[C@H](NC(=O)c3c(F)cccc3F)C(=O)O)cc2)c(OC)c1", "result_ITMP": -0.72}
{"smiles": "CCCCCNCC(N)=O", "result_ITMP": -5.73}
{"smiles": "CCN1CCCC1CNC(=O)c1cc(S(N)(=O)=O)ccc1OC", "note": "(stereo not drawn)", "result_ITMP": -0.35}
{"smiles": "COC(=O)CC[C@@H]1N=C(c2ccccn2)c2cc(Br)ccc2-n2c(C)cnc21", "result_ITMP": -1.29}
{"smiles": "COc1ccc(-c2ccc3cc(C(=O)O)ccc3c2)cc1C12CC3CC(CC(C3)C1)C2", "result_ITMP": -3.41}
{"smiles": "Cc1[nH]c(/C=C2\\C(=O)Nc3cc(-c4ccccc4)ccc32)c(C)c1CCC(=O)O", "result_ITMP": -0.9}
{"smiles": "COc1cc2c(NC3CCN(CC4CCCCC4)CC3)nc(N3CCCN(C(C)C)CC3)nc2cc1OCCCN1CCCCC1", "result_ITMP": -1.28}
{"smiles": "Nc1cc(C(F)(F)F)c(-c2nc(N3CCOCC3)nc(N3CCOCC3)n2)cn1", "result_ITMP": 0.11}
{"smiles": "O=C(NCCO)c1cc(C(=O)NCCO)cc(C(=O)NCCO)c1", "result_ITMP": -1.92}
{"smiles": "CCCC(C)C1(CC)C(=O)NC(=O)NC1=O", "note": "(stereo not drawn)", "result_ITMP": -1.95}
{"smiles": "O=C(O)c1cccnc1", "result_ITMP": -2.51}
{"smiles": "Nc1nccc2c1ncn2[C@@H]1C=C(CO)[C@@H](O)[C@H]1O", "result_ITMP": -12.7}
{"smiles": "CCCCCCCNS(=O)(=O)c1cccc2c(Cl)cccc12", "result_ITMP": 3.17}
{"smiles": "CCCCc1oc2ccccc2c1C(=O)c1cc(I)c(OCCN(CC)CC)c(I)c1", "result_ITMP": 55.1}
{"smiles": "Cc1cnc(C(=O)N[C@H]2CCCCC/C=C\\[C@@H]3C[C@@]3(C(=O)NS(=O)(=O)C3CC3)NC(=O)[C@@H]3C[C@@H](Oc4nc5ccccc5c5ccccc45)CN3C2=O)cn1", "result_ITMP": 0.45}
{"smiles": "COc1cc2c(cc1OC)CN(C(=O)[C@@H](NCc1ccncc1)C(C)(C)C)CC2", "result_ITMP": 6.96}
{"smiles": "CN1CCN(c2ccc3nc(-c4c(N)c5c(F)cccc5[nH]c4=O)[nH]c3c2)CC1", "result_ITMP": 19.1}
{"smiles": "O=c1[nH]c(=O)n([C@H]2C[C@H](O)[C@@H](CO)O2)cc1I", "result_ITMP": -5.58}
{"smiles": "Cc1cccc(N(C)C(=S)Oc2ccc3ccccc3c2)c1", "result_ITMP": -4.15}
{"smiles": "C=CCNC1=C2C[C@@H](C)C[C@H](OC)[C@H](O)[C@@H](C)/C=C(\\C)[C@H](OC(N)=O)[C@@H](OC)/C=C\\C=C(/C)C(=O)NC(=CC1=O)C2=O", "result_ITMP": -3.29}
{"smiles": "C[C@@H]1CC[C@@]2(OC1)O[C@H]1C[C@H]3[C@@H]4CC=C5C[C@@H](O)CC[C@]5(C)[C@H]4CC[C@]3(C)[C@H]1[C@@H]2C", "result_ITMP": 8.94}
{"smiles": "N[C@@H](COP(=O)(O)O)C(=O)O", "result_ITMP": -6.25}
{"smiles": "Cc1ccc(S(=O)(=O)OCC(=O)Nc2ccc(C(=O)O)c(O)c2)cc1", "result_ITMP": -0.81}
{"smiles": "C[C@H]1C[C@H]2[C@@H]3CCC4=CC(=O)C=C[C@]4(C)[C@H]3C(=O)C[C@]2(C)[C@@]1(O)C(=O)CO", "result_ITMP": -6.07}
{"smiles": "Clc1ccc(C23CNCC2C3)cc1Cl", "note": "(stereo not drawn)", "result_ITMP": 0.19}
{"smiles": "CCOC(=O)CNC(=O)[C@@H]1CCCN1C(=O)Cc1ccccc1", "note": "(PhAc-Pro-Gly-OEt)", "result_ITMP": -1.74}
{"smiles": "O=C(O)CCCN1CCC(O[C@@H](c2ccc(Cl)cc2)c2ccccn2)CC1", "result_ITMP": 2.29}
{"smiles": "O=C(Nc1ncc(SCCN2CCCC2)s1)[C@]1(c2ccc(S(=O)(=O)C3CC3)cc2)C[C@H]1C1CCCCC1", "result_ITMP": 55.8}
{"smiles": "CO/N=C(/C(=O)N[C@@H]1C(=O)N2C(C(=O)O)=C(CSC(=O)c3ccco3)CS[C@H]12)c1csc(N)n1", "result_ITMP": -6.25}
{"smiles": "CN(C(=O)CCCOc1ccc2[nH]c(=O)ccc2c1)C1CCCCC1", "result_ITMP": -1.64}
{"smiles": "NNC(=O)c1ccncc1", "result_ITMP": -5.81}
{"smiles": "CC(C)[C@]12O[C@H]1[C@@H]1O[C@]13[C@]1(O[C@H]1C[C@H]1C4=C(CC[C@@]13C)C(=O)OC4)[C@@H]2O", "result_ITMP": 17.6}
{"smiles": "C/C(=N\\c1ccccc1N)c1c(C)cc(=O)n(O)c1O", "result_ITMP": 1.39}
{"smiles": "CN1CCN(C(=O)c2nc3ccc(Cl)cc3[nH]2)CC1", "result_ITMP": -5.89}
{"smiles": "COc1ccc(Br)cc1S(=O)(=O)NC(=O)/C=C/c1ccccc1Cc1ccc2ccccc2c1", "result_ITMP": -0.88}
{"smiles": "CN1[C@@H]2C[C@@H](O)C[C@H]1[C@@H]1O[C@@H]12", "result_ITMP": 17.2}
{"smiles": "CCO/N=C(/C(=O)NC1C(=O)N2C(C(=O)O)=C(Sc3nc(-c4cc[n+](C)cc4)cs3)CS[C@H]12)c1nsc(NP(=O)(O)O)n1", "note": "(stereo partly drawn)", "result_ITMP": -4.85}
{"smiles": "COc1cccc(OC)c1C(=O)N[C@@H]1C(=O)N2[C@@H]1SC(C)(C)[C@@H]2C(=O)[O-]", "result_ITMP": -9.2}
{"smiles": "[Cl][Ru]([Cl])([Cl])[Cl].c1ccc2[nH]ncc2c1.c1ccc2[nH]ncc2c1", "result_ITMP": -2.33}
{"smiles": "CCCCC(CC)COc1ccc(-c2nc(-c3ccc(OC)cc3)nc(-c3ccc(OCC(CC)CCCC)cc3O)n2)c(O)c1", "note": "(stereo not drawn)", "result_ITMP": -4.63}
{"smiles": "NS(=O)(=O)NCc1csc2ccccc12", "result_ITMP": 3.3}
{"smiles": "N#Cc1c(Oc2ccc(F)c(NC(=O)Cc3cccc(C(F)(F)F)c3)c2)ccc2nc(NC(=O)C3CC3)sc12", "result_ITMP": -9.62}
{"smiles": "Cc1cc(OCc2nc(-c3ccccc3Cl)cs2)ccc1OCC(=O)O", "result_ITMP": -3.62}
{"smiles": "CN1CCCN=C1/C=C/c1cccs1", "result_ITMP": -2.17}
{"smiles": "C[C@@H]([C@H](C)O)[C@H](N)C(=O)O", "result_ITMP": 0.75}
{"smiles": "O=c1cc[nH]c(=O)[nH]1", "result_ITMP": -8.91}
{"smiles": "CCOC(=O)N1c2ccc(C(F)(F)F)cc2[C@@H](N(Cc2cc(C(F)(F)F)cc(C(F)(F)F)c2)C(=O)OC)C[C@H]1CC", "result_ITMP": -11.2}
